{"source": "the supplement of paper PMC8728848", "assay_in_all_cases": "glycan array binding signal (z-score within array); higher = stronger binding", "conditions_in_all_cases": "glycan notation: IUPAC condensed, linker removed", "key": {"Fuc(a1-2)Gal": {"biological_target": "Fuc(a1-2)Gal", "how_it_was_run": "(§1)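 The binding signal is a Z-score computed within each array and averaged over linkers. Arrays of the same protein sequence at different concentrations or buffers were also averaged together. Data originate from 3228 arrays in the Consortium for Functional Glycomics database, kept only where the protein sequence was available.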"}, "Fuc(a1-2)Gal(b1-3)GalNAc": {"biological_target": "Fuc(a1-2)Gal(b1-3)GalNAc", "how_it_was_run": "as §1"}, "[1]": {"biological_target": "Fuc(a1-2)Gal(b1-3)GalNAc(a1-3)[Fuc(a1-2)]Gal(b1-4)Glc", "how_it_was_run": "as §1"}, "[2]": {"biological_target": "Fuc(a1-2)Gal(b1-3)GalNAc(a1-3)[Fuc(a1-2)]Gal(b1-4)GlcNAc", "how_it_was_run": "as §1"}, "[3]": {"biological_target": "Fuc(a1-2)Gal(b1-3)GalNAc(b1-3)Gal", "how_it_was_run": "as §1"}, "[4]": {"biological_target": "Fuc(a1-2)Gal(b1-3)GalNAc(b1-3)Gal(a1-4)Gal(b1-4)Glc", "how_it_was_run": "as §1"}, "[5]": {"biological_target": "Fuc(a1-2)Gal(b1-3)GalNAc(b1-4)[Neu5Ac(a2-3)]Gal(b1-4)Glc", "how_it_was_run": "as §1"}, "Fuc(a1-2)Gal(b1-3)GlcNAc": {"biological_target": "Fuc(a1-2)Gal(b1-3)GlcNAc", "how_it_was_run": "as §1"}, "[6]": {"biological_target": "Fuc(a1-2)Gal(b1-3)GlcNAc(b1-2)Man(a1-3)[Fuc(a1-2)Gal(b1-3)GlcNAc(b1-2)Man(a1-6)]Man(b1-4)GlcNAc(b1-4)GlcNAc", "how_it_was_run": "as §1"}, "[7]": {"biological_target": "Fuc(a1-2)Gal(b1-3)GlcNAc(b1-2)Man(a1-3)[Fuc(a1-2)Gal(b1-3)GlcNAc(b1-2)Man(a1-6)]Man(b1-4)GlcNAc(b1-4)[Fuc(a1-6)]GlcNAc", "how_it_was_run": "as §1"}, "[8]": {"biological_target": "Fuc(a1-2)Gal(b1-3)GlcNAc(b1-3)Gal(b1-4)Glc", "how_it_was_run": "as §1"}, "[9]": {"biological_target": "Fuc(a1-2)Gal(b1-3)GlcNAc(b1-3)GalNAc", "how_it_was_run": "as §1"}, "[10]": {"biological_target": "Fuc(a1-2)Gal(b1-3)GlcNAc(b1-3)[Fuc(a1-2)Gal(b1-3)GlcNAc(b1-6)]GalNAc", "how_it_was_run": "as §1"}, "[11]": {"biological_target": "Fuc(a1-2)Gal(b1-3)GlcNAc(b1-3)[Gal(b1-4)GlcNAc(b1-6)]Gal(b1-4)Glc", "how_it_was_run": "as §1"}, "[12]": {"biological_target": "Fuc(a1-2)Gal(b1-3)GlcNAc(b1-3)[Neu5Ac(a2-6)Gal(b1-4)GlcNAc(b1-6)]Gal(b1-4)Glc", "how_it_was_run": "as §1"}, "[13]": {"biological_target": "Fuc(a1-2)Gal(b1-3)GlcNAc6S", "how_it_was_run": "as §1"}, "[14]": {"biological_target": "Fuc(a1-2)Gal(b1-3)[Fuc(a1-4)]GlcNAc", "how_it_was_run": "as §1"}, "[15]": {"biological_target": "Fuc(a1-2)Gal(b1-3)[Fuc(a1-4)]GlcNAc(b1-2)Man(a1-3)[Fuc(a1-2)Gal(b1-3)[Fuc(a1-4)]GlcNAc(b1-2)Man(a1-3)]Man(b1-4)GlcNAc(b1-4)GlcNAc", "how_it_was_run": "as §1"}, "[16]": {"biological_target": "Fuc(a1-2)Gal(b1-3)[Fuc(a1-4)]GlcNAc(b1-2)Man(a1-3)[Fuc(a1-2)Gal(b1-3)[Fuc(a1-4)]GlcNAc(b1-2)Man(a1-6)]Man(b1-4)GlcNAc(b1-4)[Fuc(a1-6)]GlcNAc(b1-4)[Fuc(a1-6)]GlcNAc", "how_it_was_run": "as §1"}, "[17]": {"biological_target": "Fuc(a1-2)Gal(b1-3)[Fuc(a1-4)]GlcNAc(b1-3)[Fuc(a1-3)[Gal(b1-4)]GlcNAc(b1-6)]Gal(b1-4)Glc", "how_it_was_run": "as §1"}, "[18]": {"biological_target": "Fuc(a1-2)Gal(b1-3)[Fuc(a1-4)]GlcNAc(b1-3)[Gal(b1-4)GlcNAc(b1-6)]Gal(b1-4)Glc", "how_it_was_run": "as §1"}, "Fuc(a1-2)Gal(b1-4)Glc": {"biological_target": "Fuc(a1-2)Gal(b1-4)Glc", "how_it_was_run": "as §1"}, "Fuc(a1-2)Gal(b1-4)Glc6S": {"biological_target": "Fuc(a1-2)Gal(b1-4)Glc6S", "how_it_was_run": "as §1"}, "Fuc(a1-2)Gal(b1-4)GlcNAc": {"biological_target": "Fuc(a1-2)Gal(b1-4)GlcNAc", "how_it_was_run": "as §1"}, "[19]": {"biological_target": "Fuc(a1-2)Gal(b1-4)GlcNAc(b1-2)Man", "how_it_was_run": "as §1"}, "[20]": {"biological_target": "Fuc(a1-2)Gal(b1-4)GlcNAc(b1-2)Man(a1-3)[Fuc(a1-2)Gal(b1-4)GlcNAc(b1-2)Man(a1-6)]Man(b1-4)GlcNAc(b1-4)GlcNAc", "how_it_was_run": "as §1"}, "[21]": {"biological_target": "Fuc(a1-2)Gal(b1-4)GlcNAc(b1-2)Man(a1-3)[Fuc(a1-2)Gal(b1-4)GlcNAc(b1-2)Man(a1-6)]Man(b1-4)GlcNAc(b1-4)[Fuc(a1-6)]GlcNAc", "how_it_was_run": "as §1"}, "[22]": {"biological_target": "Fuc(a1-2)Gal(b1-4)GlcNAc(b1-2)[Fuc(a1-2)Gal(b1-4)GlcNAc(b1-4)]Man(a1-3)[Fuc(a1-2)Gal(b1-4)GlcNAc(b1-2)Man(a1-6)]Man(b1-4)GlcNAc(b1-4)GlcNAc", "how_it_was_run": "as §1"}, "[23]": {"biological_target": "Fuc(a1-2)Gal(b1-4)GlcNAc(b1-3)Gal(b1-4)GlcNAc", "how_it_was_run": "as §1"}, "[24]": {"biological_target": "Fuc(a1-2)Gal(b1-4)GlcNAc(b1-3)Gal(b1-4)GlcNAc(b1-2)Man(a1-3)[Fuc(a1-2)Gal(b1-4)GlcNAc(b1-3)Gal(b1-4)GlcNAc(b1-2)Man(a1-6)]Man(b1-4)GlcNAc(b1-4)GlcNAc", "how_it_was_run": "as §1"}}, "note": "The other results are listed elsewhere or left out."}
{"binder": "SP8524D-bot-399-27-399 (Bacteroides ovatus) (protein) DAKYDTLDTHAYIEEALSSTSQKVTVQATGESFTTLNVHLSNLSSTDNHYKLVTDQSVLDTYNHINGTGYIMLPKDYYTLPETITVKAGQYAADALSIALKAFSQEMMKSGESYALPVKLVLQDGSISPMENTGTFVILAESIIEFSAPMFVGAPSLKANKFTESPETYSQYTIEVRFQVANTADRDRAVFKNGGDDANFILLRFEDPQSDNENYKAHSLVQIVGRNRLYLNPSNSFKPNEWQHLALVCDGSNYRLYINGVDSGVLSIPTGATTFSDVNWFCLGDDSYSRWGNCKILMSEARIWSVVRSASQIQNNMTQVSPKSVGLEAYWRFNEGQGNVFEDATGKGHTLTTSATPTWIDGILSTDKSTEWK", "values": [{"measurement": "glycan array binding signal (z-score)", "setting": "Fuc(a1-2)Gal", "value": -0.281}, {"measurement": "glycan array binding signal (z-score)", "setting": "Fuc(a1-2)Gal(b1-3)GalNAc", "value": -0.161}, {"measurement": "glycan array binding signal (z-score)", "setting": "[1]", "value": 0.286}, {"measurement": "glycan array binding signal (z-score)", "setting": "[2]", "value": -0.344}, {"measurement": "glycan array binding signal (z-score)", "setting": "[3]", "value": -0.229}, {"measurement": "glycan array binding signal (z-score)", "setting": "[4]", "value": -0.154}, {"measurement": "glycan array binding signal (z-score)", "setting": "[5]", "value": -0.061}, {"measurement": "glycan array binding signal (z-score)", "setting": "Fuc(a1-2)Gal(b1-3)GlcNAc", "value": 0.107}, {"measurement": "glycan array binding signal (z-score)", "setting": "[6]", "value": -0.113}, {"measurement": "glycan array binding signal (z-score)", "setting": "[7]", "value": -0.42}, {"measurement": "glycan array binding signal (z-score)", "setting": "[8]", "value": -0.093}, {"measurement": "glycan array binding signal (z-score)", "setting": "[9]", "value": -0.261}, {"measurement": "glycan array binding signal (z-score)", "setting": "[10]", "value": -0.116}, {"measurement": "glycan array binding signal (z-score)", "setting": "[11]", "value": -0.119}, {"measurement": "glycan array binding signal (z-score)", "setting": "[12]", "value": -0.348}, {"measurement": "glycan array binding signal (z-score)", "setting": "[13]", "value": 0.465}, {"measurement": "glycan array binding signal (z-score)", "setting": "[14]", "value": -0.057}, {"measurement": "glycan array binding signal (z-score)", "setting": "[15]", "value": -0.431}, {"measurement": "glycan array binding signal (z-score)", "setting": "[16]", "value": 0.483}, {"measurement": "glycan array binding signal (z-score)", "setting": "[17]", "value": -0.546}, {"measurement": "glycan array binding signal (z-score)", "setting": "[18]", "value": -0.547}, {"measurement": "glycan array binding signal (z-score)", "setting": "Fuc(a1-2)Gal(b1-4)Glc", "value": -0.082}, {"measurement": "glycan array binding signal (z-score)", "setting": "Fuc(a1-2)Gal(b1-4)Glc6S", "value": -0.198}, {"measurement": "glycan array binding signal (z-score)", "setting": "Fuc(a1-2)Gal(b1-4)GlcNAc", "value": -0.088}, {"measurement": "glycan array binding signal (z-score)", "setting": "[19]", "value": 0.082}, {"measurement": "glycan array binding signal (z-score)", "setting": "[20]", "value": -0.089}, {"measurement": "glycan array binding signal (z-score)", "setting": "[21]", "value": -0.328}, {"measurement": "glycan array binding signal (z-score)", "setting": "[22]", "value": 0.179}, {"measurement": "glycan array binding signal (z-score)", "setting": "[23]", "value": -0.184}, {"measurement": "glycan array binding signal (z-score)", "setting": "[24]", "value": 0.218}]}
